From PubChem BioAssay AID485294 (National Center for Advancing Translational Sciences (NCATS), 2010)
The campaign covered roughly 370,000 compounds. About 150 (0.041%) were called active. The inconclusive results got no clear call from the source; some entries with a clear call stand among them for comparison. Calls come from the whole dose curve; as a rule, active = well fitted inhibition curve with a large enough effect; inconclusive = small, poorly fitted or top-dose-only effect; inactive = flat fitted curve, though single readings scatter. No potency is given beside an inconclusive call; the fits are too rough.
Note: nearly all actives have a fitted effect of over 25% in size.
Potency is the fitted concentration of half-maximal effect; tags give direction and shape of the fitted curve.

What follows are molecules tested against Beta-lactamase (Escherichia coli (strain K12)) (UniProt P00811) (assay: qHTS Inhibitors of AmpC Beta-Lactamase (assay with detergent)). Conditions: AmpC hydrolysis of nitrocefin, absorbance 480 nm, 0.01% Triton; series mostly up to 114 µM.
Chain of UniProt P00811 (P00811 whole entry, looked up): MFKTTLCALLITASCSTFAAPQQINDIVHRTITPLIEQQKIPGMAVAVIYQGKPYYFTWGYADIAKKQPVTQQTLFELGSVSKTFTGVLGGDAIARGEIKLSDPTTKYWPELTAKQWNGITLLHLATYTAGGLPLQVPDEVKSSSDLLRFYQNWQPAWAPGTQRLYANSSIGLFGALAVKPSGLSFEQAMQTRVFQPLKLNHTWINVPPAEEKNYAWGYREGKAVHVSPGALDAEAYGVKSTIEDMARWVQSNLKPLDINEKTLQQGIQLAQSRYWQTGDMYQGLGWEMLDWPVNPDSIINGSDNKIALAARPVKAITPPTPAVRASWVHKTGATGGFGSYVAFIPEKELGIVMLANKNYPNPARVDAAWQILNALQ
How it was run: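 20 mM phosphate pH 7.0 + 0.01% (detergent screen) or 0.0001% Triton X-100; 5.3 nM AmpC reagent; cpd preinc 15 min RT; nitrocefin (800 uM stock) to start; A480 q20 s × 4 min; Activity was normalised to no-enzyme and no-compound control wells.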
In the case of `O=C(OCc1c(F)cccc1Cl)c1cccc(S(=O)(=O)N2CCOCC2)c1`, the Potency is reported as inconclusive [inhibitor, full curve, poor fit]. `Cc1ccc(S(=O)(=O)/N=C2/C=C(Sc3ncn[nH]3)C(=O)c3ccccc32)cc1` was tested, and the Potency was “inactive”. In the case of `CCOC(=O)N1CCN(C(=O)CSc2nnc(-c3ccc(Cl)s3)o2)CC1`, the Potency is reported as inconclusive [inhibitor, partial curve]. With `CCc1nnc(NC(=O)CSc2nnc(-c3ccncc3)n2Cc2ccccc2)s1` the Potency was inconclusive [inhibitor, full curve, poor fit]. In the case of `CSc1nnc(-c2ccccc2Cl)n1N`, the Potency is reported as inconclusive [inhibitor, full curve, poor fit]. With `O=C(CSc1ccc(-c2ccc(F)cc2)nn1)N1CCCc2ccccc21` the Potency was inconclusive [inhibitor, full curve, poor fit]. With `CC(NS(=O)(=O)c1ccc2c(c1)CCN2C(=O)CCCC(=O)O)c1ccccc1` (stereo not drawn) the Potency was “inactive”. In the case of `CC1(C)C2CCC(C2)C1(C)NC(=O)CNCC1CCCCC1` (stereo not drawn), the Potency is reported as inconclusive [inhibitor, partial curve, poor fit]. In the case of `O=C(CN1CCCCCC1)Nc1ccc(Br)cc1Br`, the Potency is reported as inconclusive [inhibitor, full curve]. For `O=C(c1ccccc1)N1CCCCC(S(=O)(=O)c2ccc3ccccc3c2)C1=O` (stereo not drawn), the Potency was inconclusive [inhibitor, full curve]. `O=c1[nH][nH]c2c(N=Cc3ccccc3O)ccc(F)c12` was tested, and the Potency was inconclusive [inhibitor, partial curve, poor fit]. For `CCOC(=O)N1CCN(C(=O)c2ccc3c(SCC(=O)O)c4c(nc3c2)CCCC4)CC1`, the Potency was inconclusive [inhibitor, single point]. `COc1cc2c(cc1OC)C(SC)=NC1(CCCC1)C2` was tested, and the Potency was “inactive”. With `Cc1ccc([N+](=O)[O-])c2cccnc12` the Potency was inconclusive [inhibitor, partial curve, poor fit]. For `Cc1c2cnn(-c3ccccc3)c(=O)c2c(C)n1CCCC(=O)Nc1cccc(F)c1`, the Potency was “inactive”. For `Cc1ccc(C)c(Cn2c3ccccc3c3cnn(CC(=O)NC4CCCCCC4)c(=O)c32)c1`, the Potency was “inactive”. For `COc1ccc(C(=O)OCC(=O)Nc2ccc3[nH]c(=O)[nH]c3c2)cc1`, the Potency was inconclusive [inhibitor, single point]. With `CCOC(=O)c1ccc(N2CCN(c3ccccc3F)CC2)c(NC(=O)Nc2cccc(OC)c2)c1` the Potency was inconclusive [inhibitor, full curve, poor fit].
